Data as given in the supplement of paper PMC9446081.
In all, about 39,000 compounds went through this assay and about 220 (0.56%) showed activity. This is one part of the list.

These compounds were tested on Escherichia coli K-12 BW25113 (assay: relative growth (OD600 normalised to plate interquartile mean) (fraction); higher = less growth inhibition, active = 0.2 or less). Conditions: 50 µM; LB; incubation time: overnight (16-24 h).
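Further: static incubation at 37 °C against the wild-type strain, values averaged over two biological replicates.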

Row | Structure (SMILES) | relative growth
1 | C[C@H]1CCCCO[C@H](CN(C)C(=O)Nc2ccc(F)cc2)[C@@H](C)CN([C@@H](C)CO)C(=O)c2cc(NC(=O)C3CCCCC3)ccc2O1 | inactive: 1.02
2 | C[C@@H]1CN([C@@H](C)CO)C(=O)Cc2cc(NC(=O)CCC(F)(F)F)ccc2O[C@H]1CN(C)C(=O)Nc1ccc(C(F)(F)F)cc1 | inactive: 0.954
3 | C[C@@H]1CN([C@@H](C)CO)S(=O)(=O)c2ccc(C#CC3CCCC3)cc2O[C@H]1CN(C)Cc1cncnc1 | inactive: 1.05
4 | CCOc1cc(N)ncn1 | inactive: 0.983
5 | Cc1noc(C)c1NC(=O)Nc1ccc2c(c1)CC(=O)N([C@H](C)CO)C[C@@H](C)[C@H](CN(C)Cc1ccc(Cl)c(Cl)c1)O2 | inactive: 1
6 | C[C@@H]1CN([C@H](C)CO)C(=O)c2cc(C#CCN(C)C)cnc2O[C@@H]1CN(C)S(=O)(=O)c1cn(C)cn1 | inactive: 0.98
7 | C[C@H](NC(=O)C[C@H]1C=C[C@@H](NC(=O)CN2CCOCC2)[C@@H](CO)O1)c1ccccc1 | inactive: 0.975
8 | CC(C)C#Cc1ccc2c(c1)O[C@@H](CN(C)C(=O)c1cccc(F)c1)[C@@H](C)CN([C@H](C)CO)S2(=O)=O | inactive: 0.997
9 | O=C(C[C@H]1C=C[C@@H](NS(=O)(=O)c2ccc(F)cc2)[C@H](CO)O1)NCc1ccc(Cl)c(Cl)c1 | inactive: 1.02
10 | C[C@H](CO)N1C[C@H](C)[C@H](CN(C)CC2CCCCC2)Oc2c(NC(=O)Nc3ccccc3)cccc2C1=O | inactive: 0.983
11 | C[C@H](CO)N1C[C@H](C)[C@@H](CN(C)Cc2ccccc2)Oc2cc(C#Cc3ccccn3)ccc2S1(=O)=O | inactive: 1.02
12 | Cn1cnc(S(=O)(=O)N[C@H]2CC[C@H](CC(=O)NCC3CC3)O[C@H]2CO)c1 | inactive: 1.02
13 | Cn1cnc(S(=O)(=O)N[C@@H]2CC[C@@H](CC(=O)Nc3ccccc3)O[C@H]2CO)c1 | inactive: 1.01
14 | CCCNC(=O)N1C[C@]2(CCN(CC2)C(=O)Cc2cccnc2)c2c([nH]c3cc(ccc23)OC)[C@H]1CO | inactive: 0.984
15 | Cc1noc(C)c1S(=O)(=O)Nc1ccc2c(c1)CC(=O)N([C@H](C)CO)C[C@@H](C)[C@H](CN(C)S(=O)(=O)c1ccccc1)O2 | inactive: 1.01
16 | C[C@@H]1CN([C@H](C)CO)C(=O)c2cc(NS(C)(=O)=O)ccc2O[C@@H](C)CCCCO[C@@H]1CN(C)Cc1ccc(Cl)c(Cl)c1 | inactive: 0.966
17 | C[C@@H]1CN([C@H](C)CO)S(=O)(=O)c2ccc(C#CC3(O)CCCC3)cc2O[C@@H]1CN(C)C(=O)c1cccnc1 | inactive: 0.986
